Laboratory results reported in the supplement of paper PMC7826260.
The other results are listed elsewhere or left out. Viral Rep nickase domains cut single-stranded DNA in vitro (1 h at 37 °C, 3 µM enzyme); the outer parts of the 90-letter strands are left off. A value is the log2 ratio of uncut reads to the pool without enzyme; the lower, the more was cut; hits are not called. The scaling is to total reads; values above 0 arise when much of the pool is cut.

Experiments:
Assay in all cases: uncleaved DNA left, log2 of reads against the no-enzyme library (log2 ratio); higher = less cleavage (more negative = more Rep cleavage of the k-mer); sequences stand for … in CTCGTCCG…ACCGGAGA
[1] = tested on: T1, Rep nickase domain of Muscovy duck circovirus
T1 sequence (Rep 1-111, printed without the tag): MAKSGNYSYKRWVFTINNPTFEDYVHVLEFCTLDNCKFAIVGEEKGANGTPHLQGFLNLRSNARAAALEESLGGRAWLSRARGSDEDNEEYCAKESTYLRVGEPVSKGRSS
Procedure: (§1)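 A pool of 90-nt single-stranded DNAs with seven random bases just before the constant AC of the nick site (name = the seven bases) was cut by 3 µM recombinant His6-SUMO-tagged Rep nickase domain (300 nM DNA, 50 mM HEPES pH 8.0, 50 mM NaCl, 1 mM MnCl2, 1 h, 37 °C, three replicates). Uncut DNA was amplified and sequenced.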

[2] = tested on: T2, Rep nickase domain of banana bunchy top virus
T2 sequence (Rep 1-94, printed without the tag): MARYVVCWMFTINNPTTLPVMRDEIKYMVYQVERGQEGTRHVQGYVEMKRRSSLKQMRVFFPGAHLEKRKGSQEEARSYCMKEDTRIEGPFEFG
Procedure: as §1

[3] = tested on: T3, Rep nickase domain of cabbage leaf curl virus
T3 sequence (Rep 1-116, printed without the tag): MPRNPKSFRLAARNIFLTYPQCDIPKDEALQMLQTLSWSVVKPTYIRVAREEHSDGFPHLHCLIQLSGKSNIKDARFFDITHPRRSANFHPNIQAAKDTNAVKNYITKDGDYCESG
Procedure: as §1

[4] = tested on: T4, Rep nickase domain of chickpea chlorotic dwarf virus
T4 sequence (Rep 1-124, printed without the tag): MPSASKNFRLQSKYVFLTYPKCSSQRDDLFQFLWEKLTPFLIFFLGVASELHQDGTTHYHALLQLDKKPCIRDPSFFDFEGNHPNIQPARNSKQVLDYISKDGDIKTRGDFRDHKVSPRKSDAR
Procedure: as §1

[5] = tested on: T5, Rep nickase domain of faba bean necrotic yellows virus
T5 sequence (Rep 1-98, printed without the tag): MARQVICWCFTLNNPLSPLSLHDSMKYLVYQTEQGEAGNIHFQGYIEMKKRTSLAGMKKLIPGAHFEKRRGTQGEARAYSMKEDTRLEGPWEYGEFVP
Procedure: as §1

[6] = tested on: T6, Rep nickase domain of maize striate mosaic virus
T6 sequence (Rep 1-117, printed without the tag): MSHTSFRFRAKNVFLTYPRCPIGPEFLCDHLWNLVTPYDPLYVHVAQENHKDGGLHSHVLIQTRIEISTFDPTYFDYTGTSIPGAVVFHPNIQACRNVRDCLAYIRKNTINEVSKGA
Procedure: as §1

[7] = tested on: T7, Rep nickase domain of porcine circovirus 2
T7 sequence (Rep 2-116, printed without the tag): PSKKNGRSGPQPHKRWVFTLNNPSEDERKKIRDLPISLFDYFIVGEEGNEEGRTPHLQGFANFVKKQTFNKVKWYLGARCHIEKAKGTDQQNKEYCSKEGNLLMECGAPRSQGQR
Procedure: as §1

[8] = tested on: T8, Rep nickase domain of tomato yellow leaf curl virus
T8 sequence (Rep 1-136, printed without the tag): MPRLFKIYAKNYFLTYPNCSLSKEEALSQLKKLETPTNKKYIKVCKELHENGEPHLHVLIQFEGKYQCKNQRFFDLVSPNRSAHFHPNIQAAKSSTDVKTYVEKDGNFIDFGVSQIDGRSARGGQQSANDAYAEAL
Procedure: as §1

[9] = tested on: T9, Rep nickase domain of wheat dwarf virus
T9 sequence (Rep 1-137, printed without the tag): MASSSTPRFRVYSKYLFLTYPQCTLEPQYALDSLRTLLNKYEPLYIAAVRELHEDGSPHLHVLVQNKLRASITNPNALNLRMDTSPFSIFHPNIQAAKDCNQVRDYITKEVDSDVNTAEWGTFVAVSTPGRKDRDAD
Procedure: as §1

Sequence	uncleaved DNA left (log2) [1]	uncleaved DNA left (log2) [2]	uncleaved DNA left (log2) [3]	uncleaved DNA left (log2) [4]	uncleaved DNA left (log2) [5]	uncleaved DNA left (log2) [6]	uncleaved DNA left (log2) [7]	uncleaved DNA left (log2) [8]	uncleaved DNA left (log2) [9]
CTTAGAA	0.209	0.243	0.175	0.116	0.191	-0.614	0.0751	0.14	0.211
AAAGCAC	-5.13e-05	0.0837	-0.146	0.0404	0.0826	-0.59	0.157	0.0287	0.0523
ACCGTCT	-0.0911	-0.151	-0.456	-1.92	-0.0411	-1.01	-0.0734	-0.202	-0.289
TCCAACT	-0.143	-0.0777	-0.134	-2.68	-0.0243	-0.39	-0.32	-0.269	-0.122
CATAGTC	-0.0344	-0.19	-0.15	-0.415	0.0161	-1.15	-0.0521	-0.184	-0.0778
ATGATCG	0.129	-0.1	-0.913	-0.258	0.0413	-1.2	0.00871	-0.101	-0.117
TCCACAG	-0.084	0.022	-0.566	-0.909	0.0339	-0.992	0.123	-0.0458	-0.0127
GAGGCAC	0.126	0.188	0.72	1.63	0.0625	1.96	0.217	-0.0116	0.159
TGCCACC	-0.0304	0.00663	0.0941	0.138	-0.0192	0.156	-0.259	0.0291	0.0049
TCCTTGA	0.0624	-0.0898	-0.16	-0.171	-0.0236	-0.821	0.0883	0.0589	-0.041
AAGCGCC	0.0397	0.148	0.15	0.245	0.0772	0.508	0.154	-0.0604	0.0667
CATCTCA	0.0391	0.134	-0.122	-1.44	0.0339	-0.407	0.0506	0.138	0.141
ACCCTAT	0.142	0.0134	-0.0485	-0.775	0.137	-0.242	0.0234	-0.0832	0.0998
GTCTCCA	-0.037	-0.00545	0.22	0.676	-0.00772	1.69	0.123	0.0172	0.0089
ACGATTG	-0.00472	0.0308	-0.0512	0.455	-0.0158	0.589	-0.00166	0.0181	-0.0396
TAATGCG	0.0246	0.0342	-0.178	0.959	0.14	0.931	0.18	-0.0235	-0.0672
GGACAGG	0.0602	0.151	0.942	1.95	0.208	2.27	0.277	0.175	0.27
TTCATTG	0.0171	-0.0864	-0.555	-0.722	-0.0166	-1.16	0.12	-0.0795	-0.0649
CTCCAAC	0.024	-0.173	-0.15	-1.43	-0.126	-0.672	-0.00426	-0.195	-0.128
GTGCTGT	0.0482	0.00404	0.233	0.872	0.0806	1.06	0.0687	-0.0137	-0.0315
ATCGTAT	-0.00404	-0.0577	-0.0185	-0.324	0.0257	-0.231	-0.0137	0.102	-0.000492
TGCAGTT	-0.0976	-0.0718	-0.238	-1.77	-0.0833	-0.802	-0.253	-0.0165	-0.19

Sequence	uncleaved DNA left (log2) [1]	uncleaved DNA left (log2) [2]	uncleaved DNA left (log2) [3]	uncleaved DNA left (log2) [4]	uncleaved DNA left (log2) [5]	uncleaved DNA left (log2) [6]	uncleaved DNA left (log2) [7]	uncleaved DNA left (log2) [8]	uncleaved DNA left (log2) [9]
CGCTGGC	-0.0908	-0.177	-0.169	0.055	-0.0545	-0.27	-0.053	-0.155	-0.0978
GGTACTG	0.0137	0.00846	0.2	0.927	0.0478	1.72	0.123	0.109	0.0925
GGATCAA	0.0352	0.121	0.694	1.64	0.026	2.01	0.129	0.0135	0.118
GTGAAAG	0.144	0.191	0.00514	0.163	0.209	-0.458	0.311	0.229	0.258
CAAAGGG	-0.0362	-0.00634	-0.415	-0.416	0.0503	-1.02	0.175	0.0382	-0.0814
TACCAGA	0.0054	0.133	-0.0591	-1.13	0.188	-0.817	-0.359	0.129	-0.0319
ACTACCT	-0.0348	-0.0494	-0.261	-0.742	-0.0299	0.0128	-0.677	-0.0598	-0.0369
TCGGAGA	-0.132	-0.0615	0.259	0.561	-0.155	0.174	-0.0735	-0.238	-0.00253
GCGTCGG	0.177	0.106	0.122	0.813	0.0637	1.49	0.221	0.0126	0.093
CCCTCCA	-0.0693	0.0236	-0.033	-0.857	0.0419	-0.0702	-0.187	-0.122	0.00515
CGGAAGG	0.012	-0.0533	0.104	0.65	-0.00427	0.135	0.0517	-0.0717	0.186
GGAGCAG	-0.0337	0.091	0.685	1.77	-0.0169	1.87	0.246	-0.106	0.128
CAGCACG	-0.0445	0.109	-0.773	-0.388	0.0787	-1.04	0.181	0.131	0.0102
GGCCGGC	0.0392	0.0918	0.513	1.08	0.0834	1.52	0.155	-0.0867	0.0685
TCACTAT	-0.159	-0.0218	-0.0763	-1.61	-0.0475	-0.676	-0.161	-0.0572	-0.181
AGCGTGT	-0.0489	-0.0385	-0.0321	0.406	-0.181	1.07	-0.0494	-0.0749	0.0198
GTCCGCG	-0.0223	0.0166	-0.411	-0.24	-0.0564	-0.328	0.0519	-0.128	-0.0937
GCACGTG	-0.0189	0.000776	-0.292	-0.219	0.0483	-0.704	0.0422	0.0768	-0.0273
AGGATGA	0.0129	0.0916	0.289	0.894	-0.0914	1	0.0339	-0.184	-0.0303
CCACGAA	-0.107	-0.113	-0.17	-0.296	-0.0254	-0.919	-0.0467	-0.0923	-0.133
AGTAGAA	0.0995	0.0289	0.279	0.413	0.149	-0.245	-0.356	0.0642	0.0741
GGACCTA	-0.00171	0.087	0.741	1.62	-0.00602	2.09	0.178	0.114	0.184

Sequence	uncleaved DNA left (log2) [1]	uncleaved DNA left (log2) [2]	uncleaved DNA left (log2) [3]	uncleaved DNA left (log2) [4]	uncleaved DNA left (log2) [5]	uncleaved DNA left (log2) [6]	uncleaved DNA left (log2) [7]	uncleaved DNA left (log2) [8]	uncleaved DNA left (log2) [9]
CTCCTGG	-0.188	-0.0716	-0.0746	0.0533	-0.193	-0.359	-0.0491	-0.148	0.0208
GACCTCG	0.0289	-0.0593	-0.732	-0.522	-0.053	-0.935	-0.0163	0.063	-0.0472
TGTGTTA	-0.167	-0.0877	0.183	0.468	-0.135	1.3	-0.123	-0.0827	-0.0731
AAGTAGT	-1.04	-2.12	-0.0523	0.0668	-1.49	0.396	-3.67	-0.0743	0.0142
GTGTCTT	-0.0441	-0.0622	0.376	0.774	-0.101	1.72	-2.04	0.0262	0.114
GGGTAAT	-0.00811	0.0877	0.86	1.96	-0.119	2.26	-1.09	-0.0524	0.137
TCATCTT	-3.28	-0.316	-2.43	-2.74	0.0654	-0.739	-3.43	-0.171	-0.556
CTCTGAT	-0.13	0.0717	0.118	0.101	0.0822	0.556	-1.52	-0.131	-0.149
GTTGCGA	0.0791	0.0824	-0.657	0.0957	0.0833	-0.344	0.131	0.126	0.0299
TCCCCAC	0.00116	-0.117	0.104	-0.374	0.125	-0.295	-0.158	0.0713	-0.0202
CACTGAT	-0.533	-0.653	-0.318	-0.108	-0.18	0.674	-3.46	-0.0962	-0.072
TTCCCGG	0.095	0.164	0.556	1.46	-0.0185	2.01	0.138	0.0429	0.135
AGGTCGC	0.178	0.0849	-0.187	-0.464	0.167	-0.527	0.0277	0.0694	0.054
GTCTAAC	-0.0293	0.094	0.243	0.675	-0.145	1.66	0.131	-0.072	0.0183
CAGGGAA	-0.0377	0.038	0.316	1.13	-0.0796	1.31	0.127	0.0255	-0.00936
CCCGCAG	-0.0635	-0.165	-0.814	-0.423	0.14	-0.85	0.0532	-0.076	-0.083
CTGTCCC	-0.0198	-0.108	0.0803	0.086	-0.14	0.0293	-0.288	-0.0605	0.0209
CTAATAT	-0.0231	0.0534	0.256	-1.09	0.0486	-0.647	0.121	0.0867	0.0558
AGGAGAG	0.0758	0.108	-0.135	0.298	0.063	-0.426	0.301	0.0723	0.0549
ATCCATG	0.119	0.0266	-0.569	-0.49	0.0853	-0.878	0.211	0.0814	-0.01
